{"source": "PubChem BioAssay AID624417", "about": "(National Center for Advancing Translational Sciences (NCATS), 2012)", "note": "Among all 410,000 compounds or so, about 6,400 (1.6%) were called active. Inconclusive results, whose numbers are uncertain, are shown with a selection of clear calls. The call rests on the fitted dose curve; in most records, active means well fitted inhibition curve with a large enough effect; inconclusive means small, poorly fitted or top-dose-only effect; inactive means no such curve, though single readings can be large or run the other way. No potency is given beside an inconclusive call; the fits are too rough. Potency means the concentration at half of the fitted maximal effect; tags describe the fitted curve by direction and shape."}
{"target": "Glucagon-like peptide 1 receptor (Homo sapiens) (UniProt P43220)", "sequence (P43220 whole entry, looked up)": "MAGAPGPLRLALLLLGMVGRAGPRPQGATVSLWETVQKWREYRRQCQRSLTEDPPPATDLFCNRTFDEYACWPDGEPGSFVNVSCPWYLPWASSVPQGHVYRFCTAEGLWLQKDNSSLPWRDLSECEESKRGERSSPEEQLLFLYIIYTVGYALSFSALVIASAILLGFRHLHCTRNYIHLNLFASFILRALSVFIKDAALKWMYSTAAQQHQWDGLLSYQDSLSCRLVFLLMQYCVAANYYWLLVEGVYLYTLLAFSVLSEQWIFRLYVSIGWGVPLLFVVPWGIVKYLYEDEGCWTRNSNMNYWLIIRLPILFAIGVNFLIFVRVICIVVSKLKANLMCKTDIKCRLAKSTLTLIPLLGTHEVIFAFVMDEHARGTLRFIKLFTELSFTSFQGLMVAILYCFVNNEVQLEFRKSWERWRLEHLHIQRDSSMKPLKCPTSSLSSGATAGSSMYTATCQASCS", "test": "qHTS of GLP-1 Receptor Inverse Agonists (Inhibition Mode); further: nearly all actives have a fitted effect of over 55% in size", "details": "HEK293 GLP-1R CRE-luciferase, luminescence, 24 h; Potency: GLP-1R form is constitutively active unless noted; series mostly up to 38.3 µM", "in_short": "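Assay principle: reduced luminescence from a cAMP-responsive reporter in HEK293 cells co-expressing a constitutively active GLP-1R. Conditions: 24 hr compound incubation, 37 deg C, 5% CO2.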"}
{"smiles": "CC1CCN(c2nc(-c3ccc(F)cc3)cc(C(F)(F)F)n2)CC1", "Potency": "inconclusive [inhibitor, single point]"}
{"smiles": "C[C@]12CCC3C(CC[C@H]4C[C@@H](O)CC[C@]34C)C1CC[C@@H]2N", "note": "(stereo partly specified)", "Potency": "inconclusive [inhibitor, single point]"}
{"smiles": "O=c1oc2ccccc2n1CSC1=NCCS1", "Potency": "inconclusive [inhibitor, partial curve, poor fit]"}
{"smiles": "COc1ccc(OCC#CCN2CCC(C)CC2)cc1", "Potency": "inconclusive [inhibitor, partial curve, poor fit]"}
{"smiles": "CC(C)(C)n1cc(C(=O)c2ccccc2)cc1-c1ccccc1", "Potency": "inconclusive [inhibitor, full curve, poor fit]"}
{"smiles": "CC(=O)NNC(=O)CN1C(=O)CN=C(c2ccccc2)c2cc(Br)ccc21", "Potency": "inconclusive [inhibitor, partial curve, poor fit]"}
{"smiles": "COc1ccccc1CN1CCN(Cc2ccc(Cl)cc2)CC1", "Potency": "inconclusive [inhibitor, single point]"}
{"smiles": "ClCCN(CCCl)c1ccc(C2=NCCc3ccccc32)cc1", "Potency": "inconclusive [inhibitor, single point]"}
{"smiles": "CC(OC(=O)c1cn(C)c2ccccc12)C(=O)N(C)c1ccccc1", "note": "(stereo unspecified)", "Potency": "inconclusive [inhibitor, single point]"}
{"smiles": "C=C1C(=O)O[C@H]2[C@H]1[C@H](OC(=O)CC(=O)O[C@@H]1C[C@@H](C)[C@@H]3C=CC(=O)[C@@]3(C)[C@H]3OC(=O)C(=C)[C@H]13)C[C@@H](C)[C@H]1C=CC(=O)[C@]12C", "Potency": "inconclusive [inhibitor, single point]"}
{"smiles": "Cc1ccc(-c2nc(N(C)C3CCN(C)CC3)c3ccccc3n2)cc1", "Potency": "inconclusive [inhibitor, partial curve, poor fit]"}
{"smiles": "Oc1ccc2c3c1OC1c4oc5ccccc5c4C[C@@]4(O)[C@@H](C2)N(CC2CC2)CC[C@]314", "note": "(stereo partly specified)", "Potency": "inconclusive [inhibitor, partial curve, poor fit]"}
{"smiles": "COc1ccc2sc(-c3ccccc3OC)c(-c3ccc(OCCN4CCOCC4)cc3)c2c1", "Potency": "inconclusive [inhibitor, single point]"}
{"smiles": "O=c1c2ccccc2nc(-c2ccccc2)n1-c1ccccc1", "Potency": "active: 5.01 µM"}
{"smiles": "CN1C(=O)C2C[C@@]3(Br)c4ccccc4N(OOSc4ccccc4)[C@H]3N2C(=O)[C@@H]1Cc1ccccc1", "note": "(stereo partly specified)", "Potency": "inconclusive [inhibitor, partial curve, poor fit]"}
{"smiles": "CC(C)CC1C(=O)N(Cc2cn(CC3CCCCC3)nn2)CCS(=O)(=O)N1Cc1ccc(-c2ccc(F)nc2)cc1", "note": "(stereo unspecified)", "Potency": "inconclusive [inhibitor, single point]"}
{"smiles": "CCOc1ccc(NCc2cccn2-c2nnc(N3CCC(C(=O)NCC(C)c4ccccc4)CC3)s2)cc1", "note": "(stereo unspecified)", "Potency": "inconclusive [inhibitor, single point]"}
{"smiles": "O=C(c1ccc(Cl)cc1)C1CCCN(Cc2ccc3c(c2)OCCO3)C1", "note": "(stereo unspecified)", "Potency": "inconclusive [inhibitor, partial curve, poor fit]"}
{"smiles": "ClCCN(CCCl)c1ccc(C=NNc2ncccn2)cc1", "Potency": "inconclusive [inhibitor, full curve, poor fit]"}
{"smiles": "O=C1NCN(c2ccccc2)C12CCN(C(CCc1ccccc1)c1nnnn1C1CCCCC1)CC2", "note": "(stereo unspecified)", "Potency": "inconclusive [inhibitor, single point]"}
{"smiles": "O=C(COc1ccc(Cl)cc1Cl)Nc1ccc(CN2CCCCC2)cc1", "Potency": "inconclusive [inhibitor, single point]"}
{"smiles": "O=C(O)CC1OCC=C2CN3CCC45C6=CC(=O)C(=O)C([N+](=O)[O-])=C6NC4C1C2CC35", "note": "(stereo unspecified)", "Potency": "inactive"}
{"smiles": "COc1ccc(-n2c(-c3ccccc3[N+](=O)[O-])nc3ccccc3c2=O)cc1", "Potency": "inconclusive [inhibitor, partial curve, poor fit]"}
{"smiles": "S=C(NCCc1ccccc1)N1Cc2ccc(Br)cc2-n2nncc2C1", "Potency": "inconclusive [inhibitor, single point]"}
{"smiles": "Cc1ccc(NC(=O)CSc2nnc([C@@H](N)Cc3c[nH]c4ccccc34)o2)c(C)c1", "Potency": "inconclusive [inhibitor, partial curve, poor fit]"}
{"smiles": "c1ccc(CNCCc2c[nH]c3ccccc23)cc1", "Potency": "inconclusive [inhibitor, single point]"}
{"smiles": "COCCCn1c(N)c(C(=O)NCc2ccco2)c2nc3ccccc3nc21", "Potency": "inconclusive [inhibitor, single point]"}
{"smiles": "C#CCOc1ccc2c(c1)c(C(C)=O)c(C)n2Cc1ccccc1", "Potency": "inconclusive [inhibitor, partial curve, poor fit]"}
{"smiles": "Cc1ccc(-c2nc(N3CCOCC3)s[n+]2-c2ccccc2)cc1", "Potency": "inconclusive [inhibitor, single point]"}
{"smiles": "Cc1ccc(N(C)C(=O)Oc2cccc3ccc(C)nc23)cc1", "Potency": "inconclusive [inhibitor, single point]"}
{"smiles": "Cc1cccc(OP(=O)(Oc2cccc(C)c2)OC(c2ccccc2)C(F)(F)F)c1", "note": "(stereo unspecified)", "Potency": "inconclusive [inhibitor, partial curve, poor fit]"}
{"smiles": "O=S1(=O)N(Cc2ccccc2Cl)CCCN1Cc1ccccc1Cl", "Potency": "inconclusive [inhibitor, single point]"}
{"smiles": "C/C(=C\\c1ccc(N(C)C)cc1)[N+](=O)[O-]", "Potency": "inconclusive [inhibitor, single point]"}
{"smiles": "O=C1NC(=O)C(=Cc2cn(CCOc3ccc4c(c3)OCO4)c3ccccc23)C(=O)N1", "Potency": "inconclusive [inhibitor, full curve]"}
{"smiles": "CC(Cc1ccccc1)N1C(=O)c2ccccc2C1=O", "note": "(stereo unspecified)", "Potency": "inactive"}
{"smiles": "COC(=O)C1=C(c2ccccc2OCc2ccccc2)C[C@@H]2CC[C@H]1N2C(=O)NCc1ccc(Br)cc1", "Potency": "inconclusive [inhibitor, partial curve, poor fit]"}
